Results reported in the supplement of paper PMC3334620.
The full ranking holds about 33,000 sequences; the median of “E-score (-0.5 to 0.5)” is about -0.012, and the highest 2% start at about 0.29. The list shows a part of the results.

Biological target: T1, Ybr033w (UniProt P38073)
T1 sequence: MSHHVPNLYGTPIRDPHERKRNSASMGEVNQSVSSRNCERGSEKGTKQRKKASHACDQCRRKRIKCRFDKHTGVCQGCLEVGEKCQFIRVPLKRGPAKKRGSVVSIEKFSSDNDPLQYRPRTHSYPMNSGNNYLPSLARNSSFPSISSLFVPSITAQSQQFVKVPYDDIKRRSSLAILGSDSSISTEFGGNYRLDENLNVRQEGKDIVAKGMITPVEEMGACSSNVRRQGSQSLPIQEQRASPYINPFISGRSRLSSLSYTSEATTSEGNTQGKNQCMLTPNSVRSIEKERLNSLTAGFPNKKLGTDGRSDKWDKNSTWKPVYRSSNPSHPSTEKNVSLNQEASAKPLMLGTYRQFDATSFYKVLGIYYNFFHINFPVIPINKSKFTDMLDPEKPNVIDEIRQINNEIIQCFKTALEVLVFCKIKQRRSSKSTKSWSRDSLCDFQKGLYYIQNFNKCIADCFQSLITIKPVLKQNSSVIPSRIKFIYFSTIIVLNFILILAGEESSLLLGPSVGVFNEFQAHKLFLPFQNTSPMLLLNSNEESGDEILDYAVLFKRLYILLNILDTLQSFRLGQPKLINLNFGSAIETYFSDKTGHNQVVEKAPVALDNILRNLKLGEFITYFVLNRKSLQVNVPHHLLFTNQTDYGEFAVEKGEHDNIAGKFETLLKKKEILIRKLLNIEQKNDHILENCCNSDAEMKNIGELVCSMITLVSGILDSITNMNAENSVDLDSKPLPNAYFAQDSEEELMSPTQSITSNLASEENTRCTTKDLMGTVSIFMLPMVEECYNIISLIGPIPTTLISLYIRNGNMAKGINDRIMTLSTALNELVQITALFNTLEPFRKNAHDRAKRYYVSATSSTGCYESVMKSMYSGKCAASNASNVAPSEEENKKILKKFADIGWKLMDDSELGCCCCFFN
Test: PBM E-score (8-mer binding enrichment) (E-score (-0.5 to 0.5)); higher = stronger / more preferred TF binding; most listed sequences are background and not binding sites
Settings: protein concentration: 200 nM; construct: GST-full length
How it was run: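 Universal all-10-mer Agilent arrays, double-stranded by primer extension on fresh or once-stripped slides, were probed with about 100-200 nM GST-tagged yeast transcription factors made by PURExpress. Fluorescent anti-GST detected bound protein, and masliner normalised the scans. E-scores from the Universal PBM Analysis Suite were given to each ungapped eight-base word pooled with its reverse complement.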

Sequence	PBM E-score
ATGACTCG	-0.0516
GGATTGCC	-0.0243
ATTTAAAT	0.227
ATTTCGGC	0.11
CCCTTTGC	-0.134
CAGCTGCC	-0.163
AGTGTTTA	0.277
AGCCAAGA	-0.111
TCCGATCA	0.164
GTCAGTGA	-0.159
CACTACGG	-0.0837
ACGACGGC	-0.325
ACATATAT	0.258
ACTTTGCC	-0.125
AGTGACGG	0.0535
GTATATAA	0.168
ATTGGACG	0.00995
AGAGAAAA	0.165
ACGTAATC	0.00761
CTTCCGTA	0.144
CAATGTCA	0.218
ACTATCGG	0.0365
TCACGGCA	-0.133
CCGAGGCG	-0.187
ACCCCTGA	-0.215

Sequence	PBM E-score
AACCCCGG	-0.178
ATGGATTC	-0.102
CCACATCA	-0.00104
ACTCTGTG	-0.109
AAAAAAGT	0.353
CTGTAACA	0.0583
AATTGAGT	0.204
CGGTGCCC	-0.278
AAGGTCAT	0.0234
CTTAGTTA	0.115
ACAGTCGG	-0.121
ATCCAAGG	-0.0334
GGATGACA	-0.124
AGTCCTAA	0.00097
TAACACGA	0.138
TGGACTAA	-0.0499
AGCAAAAA	0.319
ACACACGT	0.0046
CTGGGACC	-0.267
CCGCGATC	-0.045
ACTGTGAC	0.0498
GGCAAGCA	-0.0816
AACCATAG	0.0244
CTGCTCAA	-0.0974
CATTCCAC	0.0456

Sequence	PBM E-score
GGCTTAGA	-0.0593
AACTCCAG	0.0269
ATTTAAAG	0.227
AATAAGGA	0.0483
ACTTCACT	0.168
AGTTGGCA	0.0579
GTGATAGA	0.0453
GCAATGAA	0.202
GCGGAAGC	-0.201
ATCCTCGC	0.0364
CGCGCGCA	-0.0239
GCACGTCC	-0.152
AACGGGAC	-0.227
TGTTCTAA	0.181
CACCCCGA	-0.0672
CCTAGAGG	-0.298
AAGTTACT	0.194
GTTGACCA	0.0248
CGTACGGA	-0.0401
ACTATACC	0.0721
ACCCGGGC	-0.234
ATAAGCAG	0.0569
AGCCGAGC	-0.225
ATATCTCG	0.101
CATGCGTC	-0.181

Sequence	PBM E-score
CGGTATGA	0.0788
GAGCGTCA	-0.123
GAGCGAAC	-0.131
TCAATACA	0.134
ATAACACC	0.172
GTGTGCTA	0.0165
AGCGAGTG	0.126
AATGAAAG	0.0828
AAGAGTCA	-0.00704
AGTCGACG	0.155
AGAGCACC	-0.268
GCCGTGAA	-0.0874
TGGCGCAA	-0.119
ATTAACTC	0.291
GGTGTCTA	0.115
GGGTGAAA	0.0993
AGATTAAG	0.214
AGGGTAGC	-0.127
CTACTCGA	-0.00166
AATTAGCA	0.199
TCACCGAA	-0.00463
ACGTGATA	0.0992
AAAAAAGA	0.0787
ACCGAAAG	-0.0543
CATACTCG	-0.0918

Sequence	PBM E-score
AGACAGCA	-0.00375
TACTACAA	0.217
AAGTGTTA	0.0887
ACATAAAC	0.277
AGCGGACA	-0.0457
ATTAACGC	0.0302
TCGCCAGA	0.00477
AATAAACC	0.213
AAATGGTT	0.0633
AATATAAC	0.216
CGCCCGAC	-0.156
ATGGGCCA	-0.117
ACACGAGA	-0.172
CAGTCCAA	-0.213
ACGAGAAG	-0.208
GTAGGATA	-0.0115
CTAGTACC	-0.152
ATGAAGTC	0.048
TAAGCATA	0.128
AATCCACG	-0.0107
CAACGTGA	-0.0799
CCCGAGTC	-0.111
CCGCGCCG	-0.225
ATGATGCG	0.0945
TACGTTCA	0.137

Sequence	PBM E-score
CACACCAC	0.126
AATCCTTC	-0.00057
ATGCGCGG	-0.134
AAACTGCG	-0.0825
GTTTGTTA	0.145
ATGGCAGA	0.0056
ATTGATCG	0.13
TACATATA	0.249
CCATCTTC	0.132
TCACAGGA	0.0968
TGTTGTAA	0.139
AGACTAGA	-0.235
ACACCAAC	-0.0973
GGTCCGAA	-0.0173
ACGCTACA	0.0427
GCGGAACC	-0.0564
ATTTACAA	0.31
ATAACTTG	0.216
TCCGTCAA	0.0892
AATAACCG	-0.0165
AATTTCAG	-0.0419
CCTTGCCC	-0.0551
AAAACTTA	0.362
AGCCAAGG	0.00307
CTAGTCGC	-0.19

Sequence	PBM E-score
CTAGACAA	-0.0833
CAGGAACA	0.401
ACGGCCCC	-0.295
ACAGCAAG	0.228
GAAGCGGC	-0.317
AACTAGCC	0.112
GACGTGAA	-0.0824
AGGGGGGC	-0.417
ACCTTCCT	-0.196
CCGTAGAC	-0.079
AACCCCTC	-0.178
CAATAACG	0.0288
CCCGATAA	-0.276
TCTGTGAA	0.157
TATATTCA	0.303
GTATTGCA	0.0942
CCAAGTGG	0.0212
CGCTCGGA	0.0245
TAGTACCA	0.0533
CAGTTATA	0.074
CGGCGCGC	-0.0829
ATCCAAAC	0.169
